In PMC4857127 one finds binding data, which are given here for five molecules.

Protein sequences, listed by entry. Tags and fused reporters are not part of them. Lines headed by an entry give the natural chain unless they say otherwise; changes in a name come on top. Residues count along the entry.
UniProt Q9Y5S8, residues 217-550: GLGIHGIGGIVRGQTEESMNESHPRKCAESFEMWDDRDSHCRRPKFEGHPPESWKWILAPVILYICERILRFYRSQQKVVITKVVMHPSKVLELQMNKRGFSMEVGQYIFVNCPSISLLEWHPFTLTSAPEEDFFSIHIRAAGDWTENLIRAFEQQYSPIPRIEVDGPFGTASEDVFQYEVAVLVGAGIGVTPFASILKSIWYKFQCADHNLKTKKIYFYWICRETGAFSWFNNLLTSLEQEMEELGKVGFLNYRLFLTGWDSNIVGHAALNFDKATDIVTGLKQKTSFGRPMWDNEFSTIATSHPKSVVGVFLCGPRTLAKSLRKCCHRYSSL
UniProt O60602: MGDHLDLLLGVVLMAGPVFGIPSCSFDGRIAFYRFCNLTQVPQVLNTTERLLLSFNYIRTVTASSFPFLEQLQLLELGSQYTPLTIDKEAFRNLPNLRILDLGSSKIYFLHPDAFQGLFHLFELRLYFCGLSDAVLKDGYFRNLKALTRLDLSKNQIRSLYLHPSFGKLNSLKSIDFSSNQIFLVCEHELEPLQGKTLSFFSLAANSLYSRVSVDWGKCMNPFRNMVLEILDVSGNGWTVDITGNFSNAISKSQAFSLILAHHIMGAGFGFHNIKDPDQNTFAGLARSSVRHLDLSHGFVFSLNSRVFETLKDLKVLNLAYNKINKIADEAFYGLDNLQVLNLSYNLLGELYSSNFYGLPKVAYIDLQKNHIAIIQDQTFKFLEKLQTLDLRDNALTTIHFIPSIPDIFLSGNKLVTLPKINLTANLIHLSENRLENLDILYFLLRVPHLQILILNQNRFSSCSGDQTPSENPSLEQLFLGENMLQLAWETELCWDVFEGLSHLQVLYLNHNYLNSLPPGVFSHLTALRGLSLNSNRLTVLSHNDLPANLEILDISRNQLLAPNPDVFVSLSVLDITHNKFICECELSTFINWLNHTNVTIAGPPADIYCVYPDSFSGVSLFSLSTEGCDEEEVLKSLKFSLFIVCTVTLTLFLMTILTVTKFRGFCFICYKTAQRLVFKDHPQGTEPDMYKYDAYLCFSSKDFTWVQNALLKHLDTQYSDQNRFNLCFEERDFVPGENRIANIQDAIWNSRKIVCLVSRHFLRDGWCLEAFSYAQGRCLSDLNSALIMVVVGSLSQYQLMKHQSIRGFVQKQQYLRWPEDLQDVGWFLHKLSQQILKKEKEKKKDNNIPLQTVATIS
Toll/Interleukin-1 receptor (TIR, AA 691–837) domain of TLR5: residues 691-837 of O60602

These are yes or no findings as the source states them, for the method shown. For part of these data: Binding seen in cells or lysates may run through a third protein. Some binding calls cover weakened binding; strength is not graded here. For part of these data: Tags and fused reporters may be left off the sequences shown.

Assay [1] has as its target T1, GST-Nox4 (AA 248–578) (human) (UniProt Q9NPH5).
T1 sequence: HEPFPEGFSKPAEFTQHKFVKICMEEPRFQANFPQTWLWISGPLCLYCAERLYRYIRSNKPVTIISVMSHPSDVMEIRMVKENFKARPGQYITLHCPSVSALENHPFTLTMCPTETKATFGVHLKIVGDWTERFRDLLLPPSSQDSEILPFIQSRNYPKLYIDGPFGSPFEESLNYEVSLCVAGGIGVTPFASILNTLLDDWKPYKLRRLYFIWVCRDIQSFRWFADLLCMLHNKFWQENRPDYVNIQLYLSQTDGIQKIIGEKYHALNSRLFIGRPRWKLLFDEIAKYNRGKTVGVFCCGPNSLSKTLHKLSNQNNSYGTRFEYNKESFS
The assay can be described thus: pull-down; GST fusion proteins conjugated with glutathione-Sepharose 4B beads, incubated with lysates of HEK293T cells expressing Flag-TLR5; detection with anti-Flag; only the target purified.

Assay [2] concerns the target GST-Nox1 (AA 217–550) (human) (UniProt Q9Y5S8). The description is as above.
Assay [3] has as its target Toll/Interleukin-1 receptor (TIR, AA 691–837) domain of TLR5 (UniProt O60602). The assay can be described thus: two-hybrid; yeast expressing pB42AD-TIR-TLR5 with pLexA-Nox C-terminal regions; after selection for Trp+ and His+, Leu-dependent growth and β-galactosidase activity (X-gal) in SD/galactose/raffinose medium.
Another assay has as its target Flag-tagged TLR5 (UniProt O60602). Put plainly: co-IP; HEK293T cells transfected with Flag-CMV-TLR5 and HA-Nox1-C or HA-Nox4-C; serum starvation, then without or with flagellin (100 ng/ml, 30 min); IP with antibody to Flag, immunoblot with antibodies to HA.

As to “Flag-tagged TLR5 (from UniProt O60602 21-858) (receptor)”, the binding result in assay [1] and in assay [2] was “binds” throughout.

For “pLexA-Nox1-C (COOH-terminal region, AA 217–550) (from UniProt Q9Y5S8 217-550) (domain or fragment)”, in assay [3], the binding entry was “binds”.

Consider “pcDNA3.0-HA-Nox1C (AA 217–550) (from UniProt Q9Y5S8 217-550) (domain or fragment)”, for which the binding result with Flag-tagged TLR5 was “binds”.

B1: Nox2 COOH-terminal region (AA 291–571) (domain or fragment, UniProt P04839 291-570)
chain: SQQKVVITKVVTHPFKTIELQMKKKGFKMEVGQYIFVKCPKVSKLEWHPFTLTSAPEEDFFSIHIRIVGDWTEGLFNACGCDKQEFQDAWKLPKIAVDGPFGTASEDVFSYEVVMLVGAGIGVTPFASILKSVWYKYCNNATNLKLKKIYFYWLCRDTHAFEWFADLLQLLESQMQERNNAGFLSYNIYLTGWDESQANHFAVHHDEEKDVITGLKQKTLYGRPNWDNEFKTIASQHPNTRIGVFLCGPEALAETLSKQSISNSESGPRGVHFIFNKENF
Take B1: the binding entry in assay [3] was “no binding”.

B2: Nox3 COOH-terminal region (AA 296–568) (domain or fragment, UniProt Q9HBY0 296-568)
chain: TKVVSHPSGVLELHMKKRGFKMAPGQYILVQCPAISSLEWHPFTLTSAPQEDFFSVHIRAAGDWTAALLEAFGAEGQALQEPWSLPRLAVDGPFGTALTDVFHYPVCVCVAAGIGVTPFAALLKSIWYKCSEAQTPLKLSKVYFYWICRDARAFEWFADLLLSLETRMSEQGKTHFLSYHIFLTGWDENQALHIALHWDENTDVITGLKQKTFYGRPNWNNEFKQIAYNHPSSSIGVFFCGPKALSRTLQKMCHLYSSADPRGVHFYYNKESF
Consider B2, for which, in assay [3], the binding entry is “no binding”.
